# Publication PMC4336329 (PLoS ONE, 2015)
# In all, about 310,000 compounds went through this assay and about 2,200 (0.71%) showed an effect of 50% or more. The effect is printed as a negative number. Some of the results follow.
# Molecular target: human ether-à-go-go-related gene (hERG) potassium channel (human, UniProt Q12809)
# Test: primary screen, population patch clamp on CHO cells stably expressing hERG
# Chain of human ether-à-go-go-related gene (hERG) potassium channel (Q12809 whole entry, looked up): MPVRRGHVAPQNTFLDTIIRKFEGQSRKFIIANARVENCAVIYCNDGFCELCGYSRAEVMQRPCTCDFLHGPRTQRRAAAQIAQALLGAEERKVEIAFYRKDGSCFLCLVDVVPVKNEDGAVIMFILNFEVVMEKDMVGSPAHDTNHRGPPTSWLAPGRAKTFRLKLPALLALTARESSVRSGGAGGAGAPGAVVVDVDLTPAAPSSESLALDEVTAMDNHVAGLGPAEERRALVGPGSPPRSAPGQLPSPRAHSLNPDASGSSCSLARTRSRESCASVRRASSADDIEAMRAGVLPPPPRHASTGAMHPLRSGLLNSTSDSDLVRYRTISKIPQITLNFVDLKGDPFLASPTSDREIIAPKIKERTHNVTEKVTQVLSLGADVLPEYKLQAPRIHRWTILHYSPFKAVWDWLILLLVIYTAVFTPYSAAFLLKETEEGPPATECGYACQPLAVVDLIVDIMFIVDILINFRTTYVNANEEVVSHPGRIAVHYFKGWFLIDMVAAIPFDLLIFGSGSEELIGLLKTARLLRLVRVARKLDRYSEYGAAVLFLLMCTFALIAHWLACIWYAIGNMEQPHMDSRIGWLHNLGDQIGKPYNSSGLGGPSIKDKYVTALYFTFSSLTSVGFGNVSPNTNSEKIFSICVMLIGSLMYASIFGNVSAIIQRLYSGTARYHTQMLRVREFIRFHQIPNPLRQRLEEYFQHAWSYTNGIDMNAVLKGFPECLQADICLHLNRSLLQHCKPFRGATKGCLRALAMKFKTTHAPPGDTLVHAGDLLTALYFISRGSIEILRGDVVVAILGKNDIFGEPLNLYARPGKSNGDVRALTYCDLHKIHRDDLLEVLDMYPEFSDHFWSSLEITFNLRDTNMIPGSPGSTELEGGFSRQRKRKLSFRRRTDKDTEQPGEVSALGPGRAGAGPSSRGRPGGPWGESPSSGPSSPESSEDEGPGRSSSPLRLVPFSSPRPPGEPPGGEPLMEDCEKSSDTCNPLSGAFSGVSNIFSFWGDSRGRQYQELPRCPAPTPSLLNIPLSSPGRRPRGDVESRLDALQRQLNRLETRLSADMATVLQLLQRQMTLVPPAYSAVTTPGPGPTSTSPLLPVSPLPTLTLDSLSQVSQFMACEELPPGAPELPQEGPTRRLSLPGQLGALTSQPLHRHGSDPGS
row,Structure (SMILES),"hERG current change (%, negative = inhibition) at 1uM [%]"
1,CN(C(=O)c1ccccc1C(=O)OCC(=O)NCc1cccs1)C1CCCCC1,8.9
2,CCc1ccc(Nc2cc(C)nc3ncnn23)cc1,1.97
3,CCOc1ccc(C(C)=O)cc1Cc1c(O)[nH]c(=S)[nH]c1=O,8.88
4,Cc1cc(NC(=O)CCC(=O)N(Cc2ccco2)C(C(=O)NC2CCCCC2)c2cccs2)no1 (centres unmarked),-5.21
5,CC(C)(C)c1cc(C(C)(C)C)cc(S(=O)(=O)CCc2ccccn2)c1,7.45
6,Cc1ccc(C(=O)N2CCC(n3nccc3NC(=O)c3ccccc3C)CC2)cn1,-5.07
7,O=C(Nc1nccs1)c1cc2cc(Cl)ccc2oc1=O,12.3
8,COc1cc(/C=N/NC(=O)C(=O)/C=C2\NC(C)(C)Cc3ccccc32)ccc1O,9.34
9,Cc1ccc(-n2ccc(=O)c(C(=O)Nc3ccc(S(=O)(=O)Nc4nccc(C)n4)cc3)n2)cc1,0.335
10,CCOc1ccc(NC(=O)Nc2cc(C)ccc2OC)cc1,5.71
11,COC(=O)c1c(C)[nH]c(C(=O)COc2ccc3ccc(=O)oc3c2)c1C,7.22
12,CNC(=S)NN(c1ccccc1)c1ccccc1,3.65
13,CCOC(=O)C1=C(C)OC2(O)c3ccccc3C(=O)C12O (centres unmarked),12.1
14,Cc1ccc(OCc2nnc(SC3CCc4ccccc4C3=O)n2C)cc1 (centres unmarked),-4.61
15,CCOC(=O)c1cc2c(ccc3ccccc32)oc1=O,-7.25
16,Cc1ccc(C)c(Cn2nnc3c(=O)[nH]c(C4CCCN(S(=O)(=O)Cc5ccccc5)C4)nc32)c1 (centres unmarked),11.5
17,CCn1nnnc1SCC(=O)c1ccc(NC(C)=O)cc1,7.74
18,O=C(CSc1nnnn1-c1cccc2ccccc12)Nc1ccc(C(=O)O)cc1,6.44
19,Cc1cc(NC(=O)C2CC=CCC2C(=O)O)ccc1NC(=O)c1ccccc1 (centres unmarked),10.1
20,O=C(Cn1c(=O)c(=O)n(Cc2ccccc2)c2ccc(Cl)cc21)NCC1CCCO1 (centres unmarked),16.1
21,COc1ccc(OC)c(NC(=O)CSC2=C(C#N)C(c3ccco3)C3=C(CCCC3=O)N2)c1 (centres unmarked),10.1
22,CC1(C)CC(NCc2ccccc2)CCO1.Cl (centres unmarked),1.34

row,Structure (SMILES),"hERG current change (%, negative = inhibition) at 1uM [%]"
1,O=C(O)c1ccccc1C(=O)NCc1cccnc1,-1.84
2,COc1ccc(NC(=O)c2ccccc2NC(=O)c2cccs2)cc1,20.3
3,CCCC(C(=O)O)N1C(=O)/C(=C2\C(=O)N(C)c3ccccc32)SC1=S (centres unmarked),-1.37
4,COCCCNC(=O)CN(CCc1ccccc1)S(=O)(=O)c1ccccc1,4.7
5,CCn1c(SCC(=O)N2CCCCCC2)nc2ccccc2c1=O,2.02
6,CCCCN(C(=S)SC)C1CCS(=O)(=O)C1 (centres unmarked),-7.33
7,CC1CCCN(C(=O)COC(=O)C2CCN(S(=O)(=O)c3ccc(Cl)c(C(F)(F)F)c3)CC2)C1 (centres unmarked),6.22
8,COc1cccc(C(=O)Nc2c[nH]c(=O)[nH]c2=O)c1,11.2
9,CC1CCCN(S(=O)(=O)c2ccc(NC(=O)C3CCN(C(=O)c4ccco4)CC3)cc2)C1 (centres unmarked),9.59
10,CCN(CC)CC(=O)Nc1ccc(/C(C)=N/NC2=NCCN2)cc1,15.5
11,CC(=O)c1c(C)n(C)c2ccc(O)cc12,15.4
12,CC(C)c1ccc(NC(=O)NC2(C(=O)NCc3cccnc3)CCCCC2)cc1,11
13,CCCNC(=O)C/C(C)=N/NC(=O)C(=O)Nc1ccccn1,14.8
14,Cc1cccn2cc(CNS(=O)(=O)c3cccc(F)c3)nc12,12.1
15,CCOC(=O)c1sc2nc(SCC#N)n(CCCN3CCCC3=O)c(=O)c2c1C,-34
16,O=C(C1CCCN(S(=O)(=O)c2cccc3cccnc23)C1)N1CCN(c2ccccc2F)CC1 (centres unmarked),-27.5
17,CC12CCC(=O)N1C(C(=O)NCCN1C(=O)S/C(=C\c3ccccc3Cl)C1=O)CS2 (centres unmarked),-0.743
18,N#Cc1ccc(-c2ccc(F)cc2)nc1SCC(=O)Nc1sc2c(c1C#N)CCC2,7.89
19,CC(C)C(=O)Nc1ccc2c(c1)nc(CCN1CCN(C)CC1)n2C,0.191
20,CCn1cc(C2=NC(CC(C)C)CO2)c2ccccc21 (centres unmarked),0.691
21,Cc1cc(C)nc(NS(=O)(=O)c2ccc(N/C=C\C(=O)c3cccs3)cc2)n1,15.4
22,Cc1cc(=O)oc2cc(OCC(=O)NCC3CCCO3)ccc12 (centres unmarked),2.53
